± gives the standard deviation of the averaged measurements. The list shows a part of the results.
The sequences below were run on PfAP2-G AP2 domain (GST-tagged) (assay: gcPBM binding intensity (ln(normalized median fluorescence intensity)); higher = stronger DNA binding).
How it was run: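 After 1 h on an Agilent 4 × 180k array of primer-extended double-stranded 36-bp intergenic genomic probes and negative controls, bound GST-tagged P. falciparum DNA-binding domains were detected with Alexa488 anti-GST antibody and scanned at 488 nm. The domains had been expressed in E. coli, and binding took place in 1× PBS with 1% milk, 0.2 mg/ml BSA, 0.5% salmon testes DNA and 0.03% Triton X-100. Binding intensity is the highest Masliner-normalised natural-log median intensity across replicate spots of either probe orientation.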

Sequence | gcPBM binding intensity (ln)
GGAGCTATCTCCTGCACACACAATTTTTTTTTTTTT [CACACA_site2240] | 9.865 ± 0.092
AAGGATACGCAAAAATGTACAAAATGCTTATAAATA [XGTACX_site984] | 11.1 ± 0.54
GCACATATGAATATAATACACACTTGTATTATTAAT [CACACA_site1841] | 10 ± 0.11
ATTTTATATACAAAATGTACATATTTATTATATATG [XGTACX_site6732] | 11.2 ± 0.76
ATACATATCTACCTATGTACATAATACAACAAAGAT [XGTACX_site323] | 11.1 ± 0.58
GAATAAATACCGGTGTGTACTTAAATCATTCACGAA [XGTACX_site3174] | 11.3 ± 0.8
ATTAAAATCATATACACACCCATATATATATATATA [CACACA_site5050] | 10.1 ± 0.22
TTTTATTTTTAAGGATGTACTCAATTGTTTATATAC [XGTACX_site3965] | 11.4 ± 0.91
TGAGTATATAAATACACACACATATATATATTTTAA [CACACA_site5130] | 9.91 ± 0.11
ATATATATATATATATGTACACATATATATACTCAC [XGTACX_site8043] | 11.5 ± 0.79
TATATTTAAATTCTTTCAAATCATGTTGTAATTTTT [CACACA_negctrl_site1349] | 9.71 ± 0.15
ATACACTTAATATTATGTACATATATAAAAAAAATA [XGTACX_site1500] | 11.3 ± 0.76
TATAAAAATAATATTACACACATGTAAAATGGGGGT [CACACA_site9071] | 10.9 ± 0.57
AGGAATATCGAAAACTGTACTTGTATGTTTCATAAA [XGTACX_site6143] | 11.2 ± 0.75
TATTTTATATGAGGCACACAAATTTTAATTGTTATT [CACACA_site725] | 10 ± 0.057
ATTTATTTATTTTTTTGTACTTATAATTTTTATTAT [XGTACX_site2656] | 11.3 ± 0.75
AATTGTATGTATGCCTGTACATATGTCTATCTTAAG [XGTACX_site1927] | 10.8 ± 0.61
TTATATATAGATCACACACACACACCGGTTTTAAAA [CACACA_site4220] | 10.1 ± 0.16
AAATTTTAATTAGGAACACACATATATATATATATA [CACACA_site5673] | 10.1 ± 0.42
TATTTATCTATATATTGTACTTATTAGTCTTAATGT [XGTACX_site4242] | 11.3 ± 0.79
TCTTTTTTAATATAATATATTTTTATTAAGTAAATC [TGCATGCA_negctrl_site408] | 9.78 ± 0.085
TAAATTTATGGACACACACACATATATATATATATA [CACACA_site4620] | 11.2 ± 0.9
TAAAAAATTATTAAACGTACGAGACTTTTTATCAGT [XGTACX_site2219] | 10.8 ± 0.45
TGTAGTCATTAGTCAAATTAGAATTAAATATATATT [GTGCAC_negctrl_site643] | 9.81 ± 0.2
TTTTCAGAAAAGAGAAACTTTATTTTTCACAACCGA [TGCATGCA_negctrl_site389] | 9.73 ± 0.11
ATTTTTTATGAAAATAAACACACGATTTATTATATA [CACACA_site1312] | 9.82 ± 0.13
ACAATATATTCATATTGTACATAAAATAAGGCTAAC [XGTACX_site6728] | 11.1 ± 0.59
CATAAAAATGGATACACACACATAATATATTTATAT [CACACA_site7669] | 10.33 ± 0.028

Sequence | gcPBM binding intensity (ln)
TATAGACAAACACATACATGCATACATACATACATA [TGCATGCA_site273] | 9.97 ± 0.071
AAAAAAAAGTTCTACACACACAAAAAAATATTTTTT [CACACA_site2309] | 9.93 ± 0.11
TAATTTTTATTTATAATAATATATGACATATATCCA [XGTACX_negctrl_site359] | 9.825 ± 0.078
TTTTATTCCTATTTATTTATATTTTTGTCTTATATC [CACACA_negctrl_site125] | 9.68 ± 0.18
TTAAGAATATCTACATGTACATACCAAAGAAATACA [XGTACX_site3125] | 11.3 ± 0.83
ATGAACAAAATGTAATGTACGAATAATTATTCATAT [XGTACX_site4812] | 10.9 ± 0.49
GGAATAATATAAAACACACACATAAATATAAATATA [CACACA_site3376] | 9.89 ± 0.13
TAATTTTTTTTTTTTTTTTTTTTTTTTTTTTTCCTT [CACACA_negctrl_site1095] | 9.535 ± 0.007
GTACACATATAATATACACACAACAAATATGCACAT [CACACA_site1010] | 11 ± 0.54
GTGTGCTTTTTACGAGTGCAAGTATTTTGGTGGTTA [GTGCAC_site9496] | 10.9 ± 0.53
TGTTTTGTATATATAGCATGCAGTAAGGGAAAAAAA [TGCATGCA_site652] | 10.2 ± 0.28
TAGTTATAAGAGTTACAAAGAATACCGGAAATATAG [CACACA_negctrl_site1829] | 10.3 ± 0.12
TCGTTTCATATTTATCATGAGATAATCACACGAACA [TGCATGCA_negctrl_site497] | 9.96 ± 0.11
AATACATATTCAAAGGTGCAAAATAAAAATATACAT [GTGCAC_site9743] | 10.2 ± 0.11
TTATAATAAGATTGTTGTACTTATATTCCTTCTATA [XGTACX_site3173] | 11.4 ± 0.97
AAGTATTATTATAAGACACACATGTATTTAAGTATA [CACACA_site4922] | 10.2 ± 0.29
AATGTCAATTTTAATAGTACACAAATATATATATAT [XGTACX_site521] | 11.3 ± 0.92
AATGACCATTTTTAAAATTACAAATACATACAACTG [TGCATGCA_negctrl_site420] | 10.7 ± 0.57
ATATAAATAAATTAGTGAAAAAAAAAAAATTTTTTT [CACACA_negctrl_site945] | 9.54 ± 0.36
ATATATAATAAATACACACACATGTATTTATAAATA [CACACA_site5135] | 10 ± 0.18
TGAATTATAAATTATAGTACTTTATAATATGAACAT [XGTACX_site2317] | 10.9 ± 0.53
ATAGAAATAAAATAAAATAAAAAAAAAATAATGAAA [CACACA_negctrl_site1565] | 9.66 ± 0.014
CTCCATATGAAACACACACACAAATGAAAAAAATAT [CACACA_site3018] | 10.1 ± 0.28
AATTAACAAAGACACACACACACACGCACAAAAAAA [CACACA_site6388] | 10.4 ± 0.42
TTTAAAAAAATATATACACACATATATATATATATA [CACACA_site617] | 9.94 ± 0.37
CATATATATATATATTGTACAAGATTGTTTTTTTAT [XGTACX_site3913] | 10.6 ± 0.32
ATGATCATAAGACACACACACAAAAAAAAAAAAAAA [CACACA_site6936] | 10.1 ± 0.52

Source: the supplement of paper PMC11417369
